Measurements as given in the supplement of paper PMC7826260.
Some of the results follow. Each Rep nickase domain was tested in vitro on the same pool of single strands (3 µM enzyme, 1 h, 37 °C); shown is the middle of each 90-letter strand. A value is the log2 ratio of uncut reads to the pool without enzyme; the lower, the more was cut; hits are not called. Counts are relative to all reads, so uncut sequences can rise above 0 when many others are cut.

Columns and labels:
Assay in all cases: uncleaved DNA left, log2 of reads against the no-enzyme library (log2 ratio); higher = less cleavage (more negative = more Rep cleavage of the k-mer); sequences stand for … in CTCGTCCG…ACCGGAGA
[1] = tested on: T1, Rep nickase domain of Muscovy duck circovirus
T1 sequence (Rep 1-111, printed without the tag): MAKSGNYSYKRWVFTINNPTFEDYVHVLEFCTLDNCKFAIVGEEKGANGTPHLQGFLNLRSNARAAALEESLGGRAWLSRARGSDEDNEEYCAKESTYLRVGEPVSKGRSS
Protocol: (§1)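 A pool of 90-nt single-stranded DNAs with seven random bases just before the constant AC of the nick site (name = the seven bases) was cut by 3 µM recombinant His6-SUMO-tagged Rep nickase domain (300 nM DNA, 50 mM HEPES pH 8.0, 50 mM NaCl, 1 mM MnCl2, 1 h, 37 °C, three replicates). Uncut DNA was amplified and sequenced.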

[2] = tested on: T2, Rep nickase domain of banana bunchy top virus
T2 sequence (Rep 1-94, printed without the tag): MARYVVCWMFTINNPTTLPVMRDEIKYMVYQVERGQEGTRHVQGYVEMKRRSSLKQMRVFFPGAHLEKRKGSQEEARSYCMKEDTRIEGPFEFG
Protocol: as §1

[3] = tested on: T3, Rep nickase domain of cabbage leaf curl virus
T3 sequence (Rep 1-116, printed without the tag): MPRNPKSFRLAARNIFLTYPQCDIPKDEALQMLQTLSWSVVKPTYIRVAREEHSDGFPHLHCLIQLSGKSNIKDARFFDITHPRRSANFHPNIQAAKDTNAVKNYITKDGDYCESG
Protocol: as §1

[4] = tested on: T4, Rep nickase domain of chickpea chlorotic dwarf virus
T4 sequence (Rep 1-124, printed without the tag): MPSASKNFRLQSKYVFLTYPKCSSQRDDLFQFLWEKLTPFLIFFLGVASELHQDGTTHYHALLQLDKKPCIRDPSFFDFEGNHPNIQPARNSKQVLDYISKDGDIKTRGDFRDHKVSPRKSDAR
Protocol: as §1

[5] = tested on: T5, Rep nickase domain of faba bean necrotic yellows virus
T5 sequence (Rep 1-98, printed without the tag): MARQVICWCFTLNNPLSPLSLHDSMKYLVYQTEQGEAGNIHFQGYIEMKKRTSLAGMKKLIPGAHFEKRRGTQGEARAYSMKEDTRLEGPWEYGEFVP
Protocol: as §1

[6] = tested on: T6, Rep nickase domain of maize striate mosaic virus
T6 sequence (Rep 1-117, printed without the tag): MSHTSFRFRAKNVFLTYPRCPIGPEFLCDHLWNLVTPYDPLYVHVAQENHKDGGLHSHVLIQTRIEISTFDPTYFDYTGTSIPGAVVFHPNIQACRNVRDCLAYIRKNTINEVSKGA
Protocol: as §1

[7] = tested on: T7, Rep nickase domain of porcine circovirus 2
T7 sequence (Rep 2-116, printed without the tag): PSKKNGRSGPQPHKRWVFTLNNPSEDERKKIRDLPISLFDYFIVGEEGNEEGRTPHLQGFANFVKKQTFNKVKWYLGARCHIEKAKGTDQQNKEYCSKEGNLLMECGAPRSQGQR
Protocol: as §1

[8] = tested on: T8, Rep nickase domain of tomato golden mosaic virus
T8 sequence (Rep 1-124, printed without the tag): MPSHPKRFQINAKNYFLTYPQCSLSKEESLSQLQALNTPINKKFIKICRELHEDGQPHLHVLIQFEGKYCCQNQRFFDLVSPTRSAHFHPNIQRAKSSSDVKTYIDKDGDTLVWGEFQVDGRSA
Protocol: as §1

[9] = tested on: T9, Rep nickase domain of tomato yellow leaf curl virus
T9 sequence (Rep 1-136, printed without the tag): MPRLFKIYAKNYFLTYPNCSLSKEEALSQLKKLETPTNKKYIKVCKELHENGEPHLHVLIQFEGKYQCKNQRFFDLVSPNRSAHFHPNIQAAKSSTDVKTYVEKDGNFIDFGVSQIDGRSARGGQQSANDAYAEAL
Protocol: as §1

[10] = tested on: T10, Rep nickase domain of wheat dwarf virus
T10 sequence (Rep 1-137, printed without the tag): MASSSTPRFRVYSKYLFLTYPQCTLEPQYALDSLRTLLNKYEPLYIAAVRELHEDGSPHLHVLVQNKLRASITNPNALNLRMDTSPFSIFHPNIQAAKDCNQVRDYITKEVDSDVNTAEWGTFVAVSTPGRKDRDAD
Protocol: as §1

Sequence	uncleaved DNA left (log2) [1]	uncleaved DNA left (log2) [2]	uncleaved DNA left (log2) [3]	uncleaved DNA left (log2) [4]	uncleaved DNA left (log2) [5]	uncleaved DNA left (log2) [6]	uncleaved DNA left (log2) [7]	uncleaved DNA left (log2) [8]	uncleaved DNA left (log2) [9]	uncleaved DNA left (log2) [10]
TGCTTAG	0.191	-0.101	-0.501	-0.454	0.109	-1.12	0.13	0.0479	0.00149	0.0338
CACGTAA	-0.0518	0.162	0.0137	-0.696	0.119	-0.498	0.0673	0.0993	-0.0157	0.114
CAGTCAC	0.00112	-0.184	-0.228	-0.478	-0.0849	-0.703	-2.61	-0.0998	-0.131	0.0331
CCCCCAC	-0.0478	-0.0645	0.167	-0.49	-0.0811	-0.652	0.0486	-0.209	-0.128	-0.116
CAGCTGG	0.0474	0.0336	0.255	0.922	0.127	0.824	0.222	0.151	-0.105	0.0574
TACGACA	0.057	-0.0522	0.0571	-1.82	-0.1	0.354	-0.866	-0.0123	0.0464	0.0763
ACAGTTA	0.26	0.151	0.0515	-1.28	0.349	-0.314	0.158	0.346	0.257	0.211
ACGGAAT	0.006	0.00592	0.0381	0.5	-0.114	0.616	0.111	0.284	-0.0416	-0.0228
TCTTCGG	0.0648	0.00907	0.566	1.48	-0.0152	2.01	0.0837	0.168	-0.0165	0.00689
GCGTCCG	-0.155	-0.0519	-0.701	-0.492	-0.0955	-0.718	0.0508	-0.0428	-0.0699	-0.149
GCCCGCG	0.0507	-0.023	-0.492	0.817	0.0572	-0.0187	0.0832	-0.141	-0.15	-0.153
CTTGGTT	0.0724	-0.192	-0.0538	-1.02	0.0427	0.0569	-0.762	-0.0111	-0.128	-0.209
ACTAGTG	-0.112	-0.0423	-0.777	-0.303	0.0511	-1.09	0.145	-0.089	0.0679	-0.138
GATGGGG	0.0423	0.00695	0.028	0.196	-0.0107	-0.259	0.109	0.0405	-0.0259	-0.107
CCAGACT	0.0114	-0.0535	-0.16	-1.21	-0.201	0.675	-0.0756	-0.0838	-0.256	-0.2
TCACCAA	-0.0558	-0.0346	0.00833	-0.49	0.0698	-0.371	-0.26	-0.0123	-0.0623	0.0568
GGGGGCA	0.054	0.139	0.97	1.89	-0.0425	2.29	0.202	0.0321	0.0863	0.136
ACTTAAC	-0.0453	-0.00297	-0.507	-1.25	-0.0867	-0.655	0.213	0.0794	-0.0684	-0.0284
GTAACGC	0.00565	-0.0173	-0.145	0.206	-0.0748	0.112	0.0514	-0.11	-0.0375	-0.0566
AGCATAT	0.134	0.097	0.0162	-0.288	-0.0192	0.216	-0.366	-0.0641	0.0714	0.0238

Sequence	uncleaved DNA left (log2) [1]	uncleaved DNA left (log2) [2]	uncleaved DNA left (log2) [3]	uncleaved DNA left (log2) [4]	uncleaved DNA left (log2) [5]	uncleaved DNA left (log2) [6]	uncleaved DNA left (log2) [7]	uncleaved DNA left (log2) [8]	uncleaved DNA left (log2) [9]	uncleaved DNA left (log2) [10]
CCATAAA	0.0449	0.0156	-0.173	-0.318	0.0109	-0.933	0.0189	0.0505	0.0563	-0.0496
AGTATGC	0.0527	0.0644	-0.302	-0.297	0.0609	-0.926	0.226	0.0476	0.0893	0.0408
GCTACAC	-0.0656	-0.0167	0.116	0.088	-0.0316	0.315	-0.0349	0.0244	-0.0315	0.0532
GAATTGC	0.0749	-0.00467	-0.695	0.133	0.037	-0.854	0.177	-0.0248	0.0898	-0.0354
GTCTATG	0.105	0.0627	0.289	0.9	0.032	1.75	0.187	0.145	0.0726	0.0917
AACGATA	0.0026	-0.0168	-0.0987	-1.68	0.00359	0.145	-0.0812	0.0667	0.00102	-0.00891
GTCTACA	-0.0318	0.024	0.228	0.545	-0.0752	1.6	0.0287	0.0766	0.054	0.0419
CGACGTG	0.136	0.134	0.0388	0.565	0.0857	1.31	0.0454	0.0447	0.0102	0.0906
ACCTTCA	-0.061	-0.0199	-0.293	-1.27	0.0313	-0.867	-0.149	0.0625	-0.033	-0.0226
GTACCCA	0.035	0.103	0.355	0.67	0.0209	1.56	-0.107	0.0376	0.0842	0.16
TGTTGCT	-0.538	-0.0223	-0.547	-0.987	0.0408	-0.89	-0.589	0.0654	0.0788	-0.146
CCTTGAG	0.0665	0.0094	-0.657	0.273	0.141	-0.614	0.224	-0.0464	0.248	0.129
TAGCCTG	-0.135	-0.128	-0.169	0.479	-0.16	1.48	0.0486	-0.0789	-0.128	-0.0591
GGGCAGG	0.0634	0.056	0.835	1.81	0.00885	2.19	0.194	0.123	-0.16	0.12
CACAATG	0.0863	0.0576	-0.533	-0.505	0.0505	-1.02	0.158	0.0718	-0.0666	0.0974
CATAGGA	-0.0313	-0.0375	0.0499	0.275	-0.00391	-0.573	0.0745	-0.0217	-0.12	-0.061
CGGCCAC	-0.102	-0.00805	0.143	0.353	-0.0612	0.243	0.0203	-0.185	-0.0532	-0.0262
TGCGTAG	0.0632	0.0467	-0.263	-0.285	0.0771	-0.774	0.0803	0.132	-0.0263	-0.0518
TTCCCCT	-0.0188	-0.0179	0.102	-1.83	-0.000119	-0.329	-0.477	-0.145	-0.0538	-0.0859
CACGCAG	-0.0612	-0.0436	-0.731	-0.557	-0.0491	-0.863	0.118	-0.0722	0.0463	-0.146

Sequence	uncleaved DNA left (log2) [1]	uncleaved DNA left (log2) [2]	uncleaved DNA left (log2) [3]	uncleaved DNA left (log2) [4]	uncleaved DNA left (log2) [5]	uncleaved DNA left (log2) [6]	uncleaved DNA left (log2) [7]	uncleaved DNA left (log2) [8]	uncleaved DNA left (log2) [9]	uncleaved DNA left (log2) [10]
GTGAGTA	0.0196	0.144	0.295	0.885	0.0666	1.73	0.0726	0.109	0.152	0.17
CACGAAG	0.127	-0.0669	-0.774	-0.299	0.108	-1.1	0.0845	0.0571	0.0332	-0.0549
TATACGT	0.0306	-0.123	0.174	-0.373	-0.00118	0.228	-0.142	0.00118	0.00653	-0.0694
AATCAAC	-0.0795	-0.075	-0.0729	-1.5	0.0169	-0.586	0.0281	-0.0903	-0.00604	0.0445
ACTTCCC	-0.0613	-0.0588	-0.13	-0.0829	0.086	-0.491	-0.136	-0.0341	-0.0168	-0.0655
GGCACCT	0.0548	-0.0345	0.573	1.07	0.0269	1.86	0.0464	0.00209	0.0793	0.103
AAAGCAT	0.0496	0.036	0.0689	0.568	-0.0231	0.818	0.166	0.0771	-0.049	0.06
ACGAAGC	2.24e-05	0.0652	-0.347	-0.462	0.0966	-0.953	0.289	0.0916	0.0174	-0.00472
CCGGGAT	0.243	0.0127	0.447	1.61	0.0625	2.06	0.263	0.22	0.0789	0.0835
GCGGGAC	-0.0451	0.0945	0.794	1.77	-0.121	2.21	0.195	0.175	-0.0153	0.0538
GACAATT	0.15	-0.00773	0.476	-0.962	-0.0397	1.61	-2.05	-0.0404	0.115	0.139
GTAAGAT	0.0376	0.0685	-0.0517	-0.485	-0.0325	1.74	0.0959	0.105	0.00803	0.00901
CTACCCA	-0.283	-0.0524	-0.261	-2.19	-0.133	-0.675	-1.42	-0.0633	-0.0549	-0.0712
GAGTCTC	-0.0109	-0.0603	0.41	0.657	-0.104	1.19	-2.7	0.00608	0.0351	0.19
GAGGCTG	0.0787	-0.0162	0.179	0.885	-0.0319	1.73	0.0177	0.0669	-0.0383	-0.0356
GACCAAT	-0.036	-0.12	0.151	-0.0628	-0.0475	0.746	-0.409	-0.00268	-0.0205	0.0827
GCACCAA	-0.0921	0.0168	0.0169	0.227	-0.0804	0.00134	-0.0431	-0.104	-0.00739	0.0235
CATGGCC	0.0163	0.0488	-0.478	-0.291	-0.00188	-0.91	-0.0234	-0.091	0.101	-0.0846
ACTCATT	-0.23	-0.291	-0.369	-2.14	-0.0142	-0.88	-3.15	-0.166	-0.0906	-0.03
AGCACTG	-0.025	0.189	0.0173	0.599	0.146	1.72	0.138	0.186	0.0952	0.177
